Data as given in PubChem BioAssay AID1508623 (National Center for Advancing Translational Sciences (NCATS), 2021).
In all, about 48,000 compounds went through this assay and about 450 (0.94%) were called active. Another 19% or so got no clear call; they are omitted. Calls follow the shape of the dose curve; as a rule, active = well fitted inhibition curve with a large enough effect; inconclusive = small, poorly fitted or top-dose-only effect; inactive = no such curve, though single readings can be large or run the other way. The list shows a part of the results.

test: Primary qHTS for Identification of Small Molecule Inhibitors of Huntingtin Promoter Activity; conditions: HEK293 HTT promoter firefly luciferase reporter (activity 0% = vehicle and -100% = no light), 24 h; series mostly up to 57.5 µM; activity change, negative = inhibition: at the top concentration; also: nearly all actives have a fitted effect of over 50% in size
In short: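 HEK293 cells carrying firefly luciferase reporters were seeded at 2,500 per well in Opti-MEM and cultured for 24 h. They were then treated with compounds at up to 57.5 uM final for 24 h at 37 degrees C before Dual-Glo luminescence readout.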

Activity change, negative = inhibition, inactive:
CC[N+](C)(C)c1cccc(O)c1 5.4%, Cc1cc(NS(=O)(=O)c2ccc(NC(=O)c3ccccc3C)cc2)nc(C)n1 -23.4%, Cc1ccc(C)c(NC(=O)CC2NCCNC2=O)c1 (configuration not stated) -31.5% [at 11.5 µM], Cc1ccc(NC(=O)C2CCCN(c3nnc(-n4c(C)ccc4C)s3)C2)c(C)c1 (configuration not stated) -19%, N#Cc1ccccc1Cn1c(=O)n(CCCC(=O)NCc2ccc3c(c2)OCO3)c(=O)c2sccc21 -20.2%, CCCC(C(=O)NCc1cccc(Cl)c1)N1Cc2ccccc2C1=O (configuration not stated) -20.5%, Cc1ccn2c(=O)cc(COc3ccc(NC(=O)COc4ccc(Cl)cc4)cc3)nc2c1 -5.41%, CCCN(CCC)C(=O)Cn1c(=O)n(-c2cccc(OC)c2)c(=O)c2c3c(sc21)CCCC3 2.66%, Cc1csc2nc(COC(=O)c3cccc(NC(=O)COc4ccc(Cl)cc4)c3)cc(=O)n12 -14.4%, O=C(CCCCn1c(=O)c2ccccc2n(Cc2ccccc2Cl)c1=O)NCCc1ccccc1 -8.95%, CCOC(=O)CSc1ccc2nnc(CCNS(=O)(=O)c3ccccc3)n2n1 -4.49%, Cc1ccc(CCNC(=O)C(NS(=O)(=O)c2ccc3c(c2)oc(=O)n3C)C(C)C)cc1 (configuration not stated) -15%, Cc1ccc(N(CC(=O)N2CCN(c3ccccc3F)CC2)S(=O)(=O)c2c(C)noc2C)cc1 -9.29%, O=C(Nc1cccc(C(=O)OCc2cc(=O)n3nc(C4CC4)sc3n2)c1)c1cccc(F)c1 -18.3%, COc1cc2c(cc1OC)C(COc1ccc3c(C)cc(=O)oc3c1)N(C(=O)c1cccc(C)c1)CC2 (configuration not stated) -20.1%, CCOc1ccc(-n2c(SCC(=O)NCC3CCCO3)nc3c([nH]c4ccccc43)c2=O)cc1 (configuration not stated) -10.7%, Cn1c(=O)c(=O)n(C)c2cc(S(=O)(=O)N3CCCC3C(=O)Nc3ccccc3F)ccc21 (configuration not stated) -1.17%, COc1ccc(NC(=O)CSc2nncn3c2cc2oc(C)cc23)cc1OC 11.9%, Cc1ccc(N(CC(=O)Nc2cccc(F)c2)S(=O)(=O)c2cccs2)cc1 -24.6%, CNC(=O)C1CCC(Cn2c(=O)c3sccc3n(Cc3ccc(F)cc3)c2=O)CC1 (configuration not stated) -6.51%, CC1(C(=O)Nc2cccc(Br)c2)Cc2ccccc2C(=O)O1 (configuration not stated) -20.8%, CC(=O)N1CCCc2cc(S(=O)(=O)N3CCC(C(=O)NC4CCC(C)CC4)CC3)ccc21 (configuration not stated) -16.3%, COCCCNC(=O)CCC(=O)N1Cc2cccc(OC)c2Oc2ncccc21 -19.5%, CCCc1cc(=O)oc2c3c(ccc12)OCN(Cc1ccc(OC)cc1)C3 -9.48%, COC(=O)c1ccccc1NC(=O)c1ncoc1-c1ccco1 -15.7%, NC(N)=NS(=O)(=O)c1ccc(N)cc1 -3.35%, COC(=O)Cn1nc(C)c2c(C)n(-c3ccccc3)nc2c1=O -6.49%
